# Some of the results follow.
# Experiments:
# Assay in all cases: glycan array binding signal (z-score within array); higher = stronger binding
# Conditions in all cases: glycan notation: IUPAC condensed, linker removed
# [1] = molecular target: Fuc(a1-2)[GalNAc(a1-3)]Gal(b1-3)GlcNAc(b1-6)GalNAc
# Outline: (§1)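 From the Consortium for Functional Glycomics database, 3228 arrays were curated, keeping only those whose protein sequence was available. Binding is given as a within-array Z-score averaged across arrays sharing a protein sequence and across linkers. Negative Z-scores can be read as non-binding.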
# [2] = molecular target: Fuc(a1-2)[GalNAc(a1-3)]Gal(b1-4)Glc
# Outline: as §1
# [3] = molecular target: Fuc(a1-2)[GalNAc(a1-3)]Gal(b1-4)GlcNAc
# Outline: as §1
# [4] = molecular target: Fuc(a1-2)[GalNAc(a1-3)]Gal(b1-4)GlcNAc(b1-2)Man
# Outline: as §1
# [5] = molecular target: Fuc(a1-2)[GalNAc(a1-3)]Gal(b1-4)GlcNAc(b1-2)Man(a1-3)[Fuc(a1-2)[GalNAc(a1-3)]Gal(b1-4)GlcNAc(b1-2)Man(a1-6)]Man(b1-4)GlcNAc(b1-4)GlcNAc
# Outline: as §1
# [6] = molecular target: Fuc(a1-2)[GalNAc(a1-3)]Gal(b1-4)GlcNAc(b1-2)Man(a1-3)[Fuc(a1-2)[GalNAc(a1-3)]Gal(b1-4)GlcNAc(b1-2)Man(a1-6)]Man(b1-4)GlcNAc(b1-4)[Fuc(a1-6)]GlcNAc
# Outline: as §1
# [7] = molecular target: Fuc(a1-2)[GalNAc(a1-3)]Gal(b1-4)GlcNAc(b1-3)Gal(b1-4)GlcNAc
# Outline: as §1
# [8] = molecular target: Fuc(a1-2)[GalNAc(a1-3)]Gal(b1-4)GlcNAc(b1-3)Gal(b1-4)GlcNAc(b1-3)Gal(b1-4)GlcNAc
# Outline: as §1
# [9] = molecular target: Fuc(a1-2)[GalNAc(a1-3)]Gal(b1-4)GlcNAc(b1-3)GalNAc
# Outline: as §1
# [10] = molecular target: Fuc(a1-2)[GalNAc(a1-3)]Gal(b1-4)GlcNAc(b1-3)[Fuc(a1-2)[GalNAc(a1-3)]Gal(b1-4)GlcNAc(b1-6)]GalNAc
# Outline: as §1
# [11] = molecular target: Fuc(a1-2)[GalNAc(a1-3)]Gal(b1-4)GlcNAc(b1-6)GalNAc
# Outline: as §1
# [12] = molecular target: Fuc(a1-2)[GalNAc(a1-3)]Gal(b1-4)[Fuc(a1-3)]GlcNAc
# Outline: as §1
# [13] = molecular target: Fuc(a1-2)[GalNAc(a1-3)]Gal(b1-4)[Fuc(a1-3)]GlcNAc(b1-3)GalNAc
# Outline: as §1
# [14] = molecular target: Fuc(a1-2)[GalNAc(a1-4)]Gal(b1-4)GlcNAc
# Outline: as §1
# [15] = molecular target: Fuc(a1-2)[GalNAc(b1-3)]Gal
# Outline: as §1
# Fuc(a1-3)GlcNAc = molecular target: Fuc(a1-3)GlcNAc
# Outline: as §1
# [16] = molecular target: Fuc(a1-3)[Gal(b1-4)]Glc6S
# Outline: as §1
# [17] = molecular target: Fuc(a1-3)[Gal(b1-4)]GlcNAc
# Outline: as §1
# [18] = molecular target: Fuc(a1-3)[Gal(b1-4)]GlcNAc(b1-2)Man
# Outline: as §1
# [19] = molecular target: Fuc(a1-3)[Gal(b1-4)]GlcNAc(b1-2)Man(a1-3)[Fuc(a1-3)[Gal(b1-4)]GlcNAc(b1-2)Man(a1-6)]Man(b1-4)GlcNAc(b1-4)GlcNAc
# Outline: as §1
# [20] = molecular target: Fuc(a1-3)[Gal(b1-4)]GlcNAc(b1-2)Man(a1-3)[Fuc(a1-3)[Gal(b1-4)]GlcNAc(b1-2)Man(a1-6)]Man(b1-4)GlcNAc(b1-4)[Fuc(a1-6)]GlcNAc
# Outline: as §1
# [21] = molecular target: Fuc(a1-3)[Gal(b1-4)]GlcNAc(b1-3)Gal(b1-3)[Fuc(a1-4)]GlcNAc
# Outline: as §1
# [22] = molecular target: Fuc(a1-3)[Gal(b1-4)]GlcNAc(b1-3)Gal(b1-4)[Fuc(a1-3)]GlcNAc
# Outline: as §1
# [23] = molecular target: Fuc(a1-3)[Gal(b1-4)]GlcNAc(b1-3)Gal(b1-4)[Fuc(a1-3)]GlcNAc(b1-3)Gal(b1-4)[Fuc(a1-3)]GlcNAc
# Outline: as §1
# [24] = molecular target: Fuc(a1-3)[Gal(b1-4)]GlcNAc(b1-3)GalNAc
# Outline: as §1
# [25] = molecular target: Fuc(a1-3)[Gal(b1-4)]GlcNAc(b1-6)GalNAc
# Outline: as §1
# [26] = molecular target: Fuc(a1-3)[Gal(b1-4)]GlcNAc(b1-6)[Gal(b1-3)GlcNAc(b1-3)]Gal(b1-4)Glc
# Outline: as §1
# [27] = molecular target: Fuc(a1-3)[Gal(b1-4)]GlcNAc6S
# Outline: as §1
# [28] = molecular target: Fuc(a1-3)[Gal3S(b1-4)]Glc
# Outline: as §1
# [29] = molecular target: Fuc(a1-3)[Gal3S(b1-4)]GlcNAc
# Outline: as §1
# [30] = molecular target: Fuc(a1-3)[Gal3S(b1-4)]GlcNAc6S
# Outline: as §1
# [31] = molecular target: Fuc(a1-3)[GalNAc(b1-4)]GlcNAc
# Outline: as §1
# [32] = molecular target: Fuc(a1-3)[GalNAc(b1-4)]GlcNAc6S
# Outline: as §1
# Fuc(a1-4)GlcNAc = molecular target: Fuc(a1-4)GlcNAc
# Outline: as §1
# Fuc(b1-3)GlcNAc = molecular target: Fuc(b1-3)GlcNAc
# Outline: as §1
# Gal(a1-2)Gal = molecular target: Gal(a1-2)Gal
# Outline: as §1
# Gal(a1-3)Gal = molecular target: Gal(a1-3)Gal
# Outline: as §1
# Gal(a1-3)Gal(b1-3)GlcNAc = molecular target: Gal(a1-3)Gal(b1-3)GlcNAc
# Outline: as §1
# [33] = molecular target: Gal(a1-3)Gal(b1-3)GlcNAc(b1-2)Man
# Outline: as §1
# [34] = molecular target: Gal(a1-3)Gal(b1-3)GlcNAc(b1-2)Man(a1-3)[Gal(a1-3)Gal(b1-3)GlcNAc(b1-2)Man(a1-6)]Man(b1-4)GlcNAc(b1-4)GlcNAc
# Outline: as §1
# [35] = molecular target: Gal(a1-3)Gal(b1-3)GlcNAc(b1-3)GalNAc
# Outline: as §1
# [36] = molecular target: Gal(a1-3)Gal(b1-3)GlcNAc(b1-6)GalNAc
# Outline: as §1
# [37] = molecular target: Gal(a1-3)Gal(b1-3)[Fuc(a1-4)]GlcNAc(b1-2)Man(a1-3)[Gal(a1-3)Gal(b1-3)[Fuc(a1-4)]GlcNAc(b1-2)Man(a1-6)]Man(b1-4)GlcNAc(b1-4)GlcNAc
# Outline: as §1
# Gal(a1-3)Gal(b1-4)Glc = molecular target: Gal(a1-3)Gal(b1-4)Glc
# Outline: as §1
# Gal(a1-3)Gal(b1-4)GlcNAc = molecular target: Gal(a1-3)Gal(b1-4)GlcNAc
# Outline: as §1
binder,measurement,setting,value
Cohesin-hDCIR (Homo sapiens) (protein) LDDLDAVRIKVDTVNAKPGDTVRIPVRFSGIPSKGIANCDFVYSYDPNVLEIIEIEPGDIIVDPNPDKSFDTAVYPDRKIIVFLFAEDSGTGAYAITKDGVFATIVAKVKEGAPNGLSVIKFVEVGGFANNDLVEQKTQFFDGGANVGDTTEPATPTTPVTTPTTTDDLDAASQKYSQLLEKKTTKELVHTTLECVKKNMPVEETAWSCCPKNWKSFSSNCYFISTESASWQDSEKDCARMEAHLLVINTQEEQDFIFQNLQEESAYFVGLSDPEGQRHWQWVDQTPYNESSTFWHPREPSDPNERCVVLNFRKSPKRWGWNDVNCLGPQRSVCEMMKIHLHHHHHH,glycan array binding signal (z-score),[1],2.04
same,glycan array binding signal (z-score),[2],-0.644
same,glycan array binding signal (z-score),[3],-0.4
same,glycan array binding signal (z-score),[4],-0.056
same,glycan array binding signal (z-score),[5],-0.364
same,glycan array binding signal (z-score),[6],-0.345
same,glycan array binding signal (z-score),[7],-0.461
same,glycan array binding signal (z-score),[8],-0.397
same,glycan array binding signal (z-score),[9],-0.401
same,glycan array binding signal (z-score),[10],-0.14
same,glycan array binding signal (z-score),[11],5.33
same,glycan array binding signal (z-score),[12],-0.198
same,glycan array binding signal (z-score),[13],0.349
same,glycan array binding signal (z-score),[14],1.42
same,glycan array binding signal (z-score),[15],3.31
same,glycan array binding signal (z-score),Fuc(a1-3)GlcNAc,-0.066
same,glycan array binding signal (z-score),[16],-0.026
same,glycan array binding signal (z-score),[17],0.016
same,glycan array binding signal (z-score),[18],-0.432
same,glycan array binding signal (z-score),[19],-0.176
same,glycan array binding signal (z-score),[20],-0.623
same,glycan array binding signal (z-score),[21],-0.547
same,glycan array binding signal (z-score),[22],0.161
same,glycan array binding signal (z-score),[23],-0.418
same,glycan array binding signal (z-score),[24],1.16
same,glycan array binding signal (z-score),[25],0.525
same,glycan array binding signal (z-score),[26],-0.514
same,glycan array binding signal (z-score),[27],-0.73
same,glycan array binding signal (z-score),[28],-0.257
same,glycan array binding signal (z-score),[29],0.773
same,glycan array binding signal (z-score),[30],-0.163
same,glycan array binding signal (z-score),[31],1.71
same,glycan array binding signal (z-score),[32],0.081
same,glycan array binding signal (z-score),Fuc(a1-4)GlcNAc,0.013
same,glycan array binding signal (z-score),Fuc(b1-3)GlcNAc,-0.259
same,glycan array binding signal (z-score),Gal(a1-2)Gal,-0.065
same,glycan array binding signal (z-score),Gal(a1-3)Gal,-0.678
same,glycan array binding signal (z-score),Gal(a1-3)Gal(b1-3)GlcNAc,2.28
same,glycan array binding signal (z-score),[33],-0.432
same,glycan array binding signal (z-score),[34],-0.058
same,glycan array binding signal (z-score),[35],-0.183
same,glycan array binding signal (z-score),[36],2.7
same,glycan array binding signal (z-score),[37],-0.471
same,glycan array binding signal (z-score),Gal(a1-3)Gal(b1-4)Glc,-0.573
same,glycan array binding signal (z-score),Gal(a1-3)Gal(b1-4)GlcNAc,-0.455

# — the supplement of paper PMC8728848
